Data: patent publication US20230235090A1 (HARBOUR BIOMED US, published 2023)

Assays:
Cynomolgus monkey CD 16 = molecular target: T1, Cynomolgus monkey CD 16 (cynomolgus monkey, UniProt Q8SPW2 17-208); test: BLI, antibody captured on FAB2G sensor, receptor as analyte
T1 construct: bought protein

CD27 = molecular target: T2, CD27 (UniProt P26842 21-192, limits assumed); test: ELISA, protein coated at 1 µg/mL
T2 construct: bought protein
T2 sequence (looked up): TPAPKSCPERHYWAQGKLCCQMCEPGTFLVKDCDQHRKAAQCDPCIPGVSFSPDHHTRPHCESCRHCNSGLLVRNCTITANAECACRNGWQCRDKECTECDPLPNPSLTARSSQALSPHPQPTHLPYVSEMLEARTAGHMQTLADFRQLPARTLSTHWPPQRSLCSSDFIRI

CD30 = molecular target: T3, CD30 (UniProt P28908 19-379, limits assumed); test: ELISA, protein coated at 1 µg/mL
T3 construct: bought protein
T3 sequence (looked up): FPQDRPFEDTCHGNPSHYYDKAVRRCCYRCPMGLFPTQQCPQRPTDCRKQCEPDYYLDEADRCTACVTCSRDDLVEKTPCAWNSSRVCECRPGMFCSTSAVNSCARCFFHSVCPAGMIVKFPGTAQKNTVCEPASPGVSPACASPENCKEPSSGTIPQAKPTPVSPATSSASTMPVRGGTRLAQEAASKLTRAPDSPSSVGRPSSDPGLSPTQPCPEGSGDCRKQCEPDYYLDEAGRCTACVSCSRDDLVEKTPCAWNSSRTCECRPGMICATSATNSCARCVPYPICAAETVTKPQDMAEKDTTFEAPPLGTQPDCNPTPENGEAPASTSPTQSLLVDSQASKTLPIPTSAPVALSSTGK

OX40 = molecular target: T4, OX40 (UniProt P43489 29-216); test: ELISA, protein coated at 1 µg/mL
T4 construct: bought protein
T4 sequence (looked up): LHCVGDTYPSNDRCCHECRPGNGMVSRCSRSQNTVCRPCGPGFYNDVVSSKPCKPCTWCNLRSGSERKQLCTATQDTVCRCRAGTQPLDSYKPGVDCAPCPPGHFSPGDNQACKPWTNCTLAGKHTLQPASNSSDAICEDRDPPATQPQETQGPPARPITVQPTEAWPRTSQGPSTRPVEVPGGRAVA

GITR = molecular target: T5, GITR (UniProt Q9Y5U5 26-161); test: ELISA, protein coated at 1 µg/mL
T5 construct: bought protein
T5 sequence (looked up): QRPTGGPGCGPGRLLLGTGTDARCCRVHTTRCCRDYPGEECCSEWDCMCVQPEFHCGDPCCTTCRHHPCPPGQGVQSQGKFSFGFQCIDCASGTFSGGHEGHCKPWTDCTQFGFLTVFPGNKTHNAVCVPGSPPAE

CD40 = molecular target: T6, CD40 (UniProt P25942 in part); test: ELISA, protein coated at 1 µg/mL
Sequence of CD40 (P25942 21-193 limits assumed): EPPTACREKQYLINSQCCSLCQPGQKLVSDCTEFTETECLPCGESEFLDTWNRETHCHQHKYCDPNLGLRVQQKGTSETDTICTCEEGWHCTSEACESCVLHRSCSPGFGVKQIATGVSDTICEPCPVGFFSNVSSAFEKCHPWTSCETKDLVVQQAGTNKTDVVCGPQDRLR
T6 construct: bought protein

HVEM = molecular target: T7, HVEM (UniProt Q92956 39-202); test: ELISA, protein coated at 1 µg/mL
T7 construct: bought protein
T7 sequence (looked up): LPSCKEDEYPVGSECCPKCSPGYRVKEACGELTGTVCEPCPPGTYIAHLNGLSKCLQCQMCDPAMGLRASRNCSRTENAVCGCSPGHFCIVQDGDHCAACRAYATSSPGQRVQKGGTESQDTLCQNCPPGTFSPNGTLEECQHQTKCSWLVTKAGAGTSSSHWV

mouse 4-1BB = molecular target: T8, mouse 4-1BB (mouse, UniProt P20334 24-256); test: FACS, CHO-K1/m4-1BB cells [C]
T8 construct: whole, on cells; also called CHO-K1/m4-1BB
T8 sequence (looked up): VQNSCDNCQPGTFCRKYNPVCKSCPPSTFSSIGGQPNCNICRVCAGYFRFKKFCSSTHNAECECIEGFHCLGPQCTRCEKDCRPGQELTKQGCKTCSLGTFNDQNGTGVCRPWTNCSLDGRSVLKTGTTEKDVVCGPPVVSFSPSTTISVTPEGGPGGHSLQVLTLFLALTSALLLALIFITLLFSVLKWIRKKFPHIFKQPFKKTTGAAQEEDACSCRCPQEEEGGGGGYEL

cynomolgus monkey 4-1BB = molecular target: T9, cynomolgus monkey 4-1BB (cynomolgus monkey); test: FACS, CHO-K1/cyno-4-1BB cells [B]
T9 construct: whole, on cells; also called CHO-K1-cyno 4-1BB; CHO-K1/cyno4-1BB

Sequence of Cynomolgus monkey CD 16 (Q8SPW2 17-208 limits assumed): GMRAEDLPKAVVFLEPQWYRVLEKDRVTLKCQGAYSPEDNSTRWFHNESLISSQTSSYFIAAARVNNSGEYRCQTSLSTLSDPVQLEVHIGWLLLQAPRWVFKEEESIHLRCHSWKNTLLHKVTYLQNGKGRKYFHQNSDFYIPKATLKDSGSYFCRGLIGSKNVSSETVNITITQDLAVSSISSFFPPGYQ

B1: PR004282 (bispecific antibody, human IgG1, kappa, L234A L235A)
light: EIVMTQSPATLSVSPGERATLSCRASQSISSNLGWYQQKPGQAPRLLIYGASTRATGIPARFSGSGSGTEFTLTISSLQSEDFAVYYCQQYQSWPPLTFGGGTKVEIKRTVAAPSVFIFPPSDEQLKSGTASVVCLLNNFYPREAKVQWKVDNALQSGNSQESVTEQDSKDSTYSLSSTLTLSKADYEKHKVYACEVTHQGLSSPVTKSFNRGEC
heavy: QVQLVESGGGVVQPGRSLRLSCAASGFTFRSFGMHWVRQAPGKGLEWVAVISYDASNEYYADSVKGRFIISRDNSKDTLYLQMNSLRAGDTAVYYCAKGGGLRWYFAYWGQGTLVTVSSASTKGPSVFPLAPSSKSTSGGTAALGCLVKDYFPEPVTVSWNSGALTSGVHTFPAVLQSSGLYSLSSVVTVPSSSLGTQTYICNVNHKPSNTKVDKKV[letters of human IgG1 Fc with changes not shown]GGSGGSEVQLLESGGGLVQPGGSLRLSCAASGFTFSNYAMSWFRQPPETGLKWVSSIDASGGDTYYADSVKGRFTISRDNSKNTLYLQMNSLRAEDTAVYYCAKEGSHGTDDSHYDVDVWGQGTTVTVSS
notes: IgG-VH tetravalent symmetric; PR002408 IgG x PR004469 VH; linker GS_6; IgG1 (L234A, L235A); also called PR0004282
With B1 the Kd (Cynomolgus monkey CD 16) was 747 nM, the binding result (CD27) was “no binding (tested: 100 nM, 10 nM and 1 nM)” and the binding result (CD30) was “no binding (tested: 100 nM, 10 nM and 1 nM)”. B1: no binding (tested: 100 nM, 10 nM and 1 nM) (OX40); no binding (tested: 100 nM, 10 nM and 1 nM) (GITR); no binding (tested: 100 nM, 10 nM and 1 nM) (CD40). For the same binder, the binding result (HVEM) was “no binding (tested: 100 nM, 10 nM and 1 nM)”, the binding result (mouse 4-1BB) was “no binding (tested: 100 nM)” and the EC50 (cynomolgus monkey 4-1BB) was 2.99 nM.
